# Test results from the supplement of paper PMC8728848.
# The list shows a part of the results.
# Assays:
# Assay in all cases: glycan array binding signal (z-score within array); higher = stronger binding
# Conditions in all cases: glycan notation: IUPAC condensed, linker removed
# [1] = target: Fuc(a1-2)[GalNAc(a1-3)]Gal(b1-4)Glc
# Procedure, shortened: (§1)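 Glycan array binding is given as a within-array Z-score, which can be read as non-binding when negative. The arrays, 3228 of them, came from the Consortium for Functional Glycomics database and were retained only where the protein sequence was available. Z-scores were averaged across arrays of the same protein sequence at different concentrations or buffers and across linkers.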
# [2] = target: Fuc(a1-2)[GalNAc(a1-3)]Gal(b1-4)GlcNAc
# Procedure, shortened: as §1
# [3] = target: Fuc(a1-2)[GalNAc(a1-3)]Gal(b1-4)[Fuc(a1-3)]GlcNAc
# Procedure, shortened: as §1
# [4] = target: Fuc(a1-2)[GalNAc(a1-4)]Gal(b1-4)GlcNAc
# Procedure, shortened: as §1
# [5] = target: Fuc(a1-2)[GalNAc(b1-3)]Gal
# Procedure, shortened: as §1
# Fuc(a1-3)GlcNAc = target: Fuc(a1-3)GlcNAc
# Procedure, shortened: as §1
# [6] = target: Fuc(a1-3)[Gal(b1-4)]Glc6S
# Procedure, shortened: as §1
# [7] = target: Fuc(a1-3)[Gal(b1-4)]GlcNAc
# Procedure, shortened: as §1
# [8] = target: Fuc(a1-3)[Gal(b1-4)]GlcNAc(b1-3)Gal(b1-3)[Fuc(a1-4)]GlcNAc
# Procedure, shortened: as §1
# [9] = target: Fuc(a1-3)[Gal(b1-4)]GlcNAc(b1-4)Gal(b1-4)[Fuc(a1-3)]GlcNAc
# Procedure, shortened: as §1
# [10] = target: Fuc(a1-3)[Gal(b1-4)]GlcNAc(b1-4)Gal(b1-4)[Fuc(a1-3)]GlcNAc(b1-4)Gal(b1-4)[Fuc(a1-3)]GlcNAc
# Procedure, shortened: as §1
# [11] = target: Fuc(a1-3)[Gal(b1-4)]GlcNAc6S
# Procedure, shortened: as §1
# [12] = target: Fuc(a1-3)[Gal3S(b1-4)]Glc6S
# Procedure, shortened: as §1
# [13] = target: Fuc(a1-3)[Gal3S(b1-4)]GlcNAc
# Procedure, shortened: as §1
# [14] = target: Fuc(a1-3)[Gal3S(b1-4)]GlcNAc6S
# Procedure, shortened: as §1
# [15] = target: Fuc(a1-3)[GalNAc(b1-4)]GlcNAc
# Procedure, shortened: as §1
# Fuc(a1-4)GlcNAc = target: Fuc(a1-4)GlcNAc
# Procedure, shortened: as §1
# Fuc(b1-3)GlcNAc = target: Fuc(b1-3)GlcNAc
# Procedure, shortened: as §1
# Gal(a1-2)Gal = target: Gal(a1-2)Gal
# Procedure, shortened: as §1
# Gal(a1-3)Gal = target: Gal(a1-3)Gal
# Procedure, shortened: as §1
# Gal(a1-3)Gal(b1-3)GlcNAc = target: Gal(a1-3)Gal(b1-3)GlcNAc
# Procedure, shortened: as §1
# Gal(a1-3)Gal(b1-4)Glc = target: Gal(a1-3)Gal(b1-4)Glc
# Procedure, shortened: as §1
# Gal(a1-3)Gal(b1-4)GlcNAc = target: Gal(a1-3)Gal(b1-4)GlcNAc
# Procedure, shortened: as §1
# [16] = target: Gal(a1-3)Gal(b1-4)[Fuc(a1-3)]GlcNAc
# Procedure, shortened: as §1
# Gal(a1-3)GalNAc = target: Gal(a1-3)GalNAc
# Procedure, shortened: as §1
# [17] = target: Gal(a1-3)[Gal(a1-4)]Gal(b1-4)GlcNAc
# Procedure, shortened: as §1
# Gal(a1-4)Gal(b1-4)Glc = target: Gal(a1-4)Gal(b1-4)Glc
# Procedure, shortened: as §1
# Gal(a1-4)Gal(b1-4)GlcNAc = target: Gal(a1-4)Gal(b1-4)GlcNAc
# Procedure, shortened: as §1
# Gal(a1-4)GlcNAc = target: Gal(a1-4)GlcNAc
# Procedure, shortened: as §1
# Gal(a1-6)Glc = target: Gal(a1-6)Glc
# Procedure, shortened: as §1
# Gal(b1-2)Gal = target: Gal(b1-2)Gal
# Procedure, shortened: as §1
# Gal(b1-3)Gal = target: Gal(b1-3)Gal
# Procedure, shortened: as §1
# Gal(b1-3)Gal(b1-4)GlcNAc = target: Gal(b1-3)Gal(b1-4)GlcNAc
# Procedure, shortened: as §1
# Gal(b1-3)GalNAc = target: Gal(b1-3)GalNAc
# Procedure, shortened: as §1
# [18] = target: Gal(b1-3)GalNAc(b1-3)Gal(a1-4)Gal(b1-4)Glc
# Procedure, shortened: as §1
# [19] = target: Gal(b1-3)GalNAc(b1-4)Gal(b1-4)Glc
# Procedure, shortened: as §1
# [20] = target: Gal(b1-3)GalNAc(b1-4)[Neu5Ac(a2-3)]Gal(b1-4)Glc
# Procedure, shortened: as §1
binder,measurement,setting,value
Mannose Binding Protein (Lactobacillus plantarum) (protein) AERSEAALTHVDKDNFLKYFSLNGSATYDAKTGIVTITPNQNNQVGNFSLTSKIDMNKSFTLTGQVNLGSNPNGADGIGFAFHSGNTTDVGNAGGNLGIGGLQDAIGFKLDTWFNSYQAPSSDKNGSEISSTNSNGFGWNGDSANAPYGTFVKTSNQEISTANGSKVQRWWAQDTGESQALSKADIDGNFHDFVVNYDGATRTLTVSYTQASGKVLTWKTTVASSYQAMAMVVSASTGAAKNLQQFKLTSFDFQEAATVNVKYVDTTGHQLAQG,glycan array binding signal (z-score),[1],-0.337
same,glycan array binding signal (z-score),[2],-0.19
same,glycan array binding signal (z-score),[3],0.499
same,glycan array binding signal (z-score),[4],-1.03
same,glycan array binding signal (z-score),[5],0.325
same,glycan array binding signal (z-score),Fuc(a1-3)GlcNAc,-0.141
same,glycan array binding signal (z-score),[6],-0.139
same,glycan array binding signal (z-score),[7],-0.495
same,glycan array binding signal (z-score),[8],0.86
same,glycan array binding signal (z-score),[9],-0.291
same,glycan array binding signal (z-score),[10],-0.071
same,glycan array binding signal (z-score),[11],-0.079
same,glycan array binding signal (z-score),[12],1.28
same,glycan array binding signal (z-score),[13],0.017
same,glycan array binding signal (z-score),[14],-0.14
same,glycan array binding signal (z-score),[15],0.022
same,glycan array binding signal (z-score),Fuc(a1-4)GlcNAc,-0.963
same,glycan array binding signal (z-score),Fuc(b1-3)GlcNAc,-0.271
same,glycan array binding signal (z-score),Gal(a1-2)Gal,-0.205
same,glycan array binding signal (z-score),Gal(a1-3)Gal,-0.442
same,glycan array binding signal (z-score),Gal(a1-3)Gal(b1-3)GlcNAc,-0.569
same,glycan array binding signal (z-score),Gal(a1-3)Gal(b1-4)Glc,13.6
same,glycan array binding signal (z-score),Gal(a1-3)Gal(b1-4)GlcNAc,1.08
same,glycan array binding signal (z-score),[16],0.671
same,glycan array binding signal (z-score),Gal(a1-3)GalNAc,0.219
same,glycan array binding signal (z-score),[17],-0.551
same,glycan array binding signal (z-score),Gal(a1-4)Gal(b1-4)Glc,-0.504
same,glycan array binding signal (z-score),Gal(a1-4)Gal(b1-4)GlcNAc,-0.346
same,glycan array binding signal (z-score),Gal(a1-4)GlcNAc,-0.373
same,glycan array binding signal (z-score),Gal(a1-6)Glc,-0.295
same,glycan array binding signal (z-score),Gal(b1-2)Gal,0.419
same,glycan array binding signal (z-score),Gal(b1-3)Gal,-0.713
same,glycan array binding signal (z-score),Gal(b1-3)Gal(b1-4)GlcNAc,-0.955
same,glycan array binding signal (z-score),Gal(b1-3)GalNAc,-0.216
same,glycan array binding signal (z-score),[18],-0.213
same,glycan array binding signal (z-score),[19],-0.497
same,glycan array binding signal (z-score),[20],-0.681
